Out of some 310,000 compounds screened, about 14,000 (4.5%) showed an effect of 50% or more. Effects have a minus sign here. This is one part of the list.
These compounds were tested against human ether-à-go-go-related gene (hERG) potassium channel (human, UniProt Q12809) (assay: primary screen, population patch clamp on CHO cells stably expressing hERG).
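Note: peak tail current of the secondary pulse compared with the same well before compound.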

human ether-à-go-go-related gene (hERG) potassium channel, sequence (Q12809 whole entry, looked up): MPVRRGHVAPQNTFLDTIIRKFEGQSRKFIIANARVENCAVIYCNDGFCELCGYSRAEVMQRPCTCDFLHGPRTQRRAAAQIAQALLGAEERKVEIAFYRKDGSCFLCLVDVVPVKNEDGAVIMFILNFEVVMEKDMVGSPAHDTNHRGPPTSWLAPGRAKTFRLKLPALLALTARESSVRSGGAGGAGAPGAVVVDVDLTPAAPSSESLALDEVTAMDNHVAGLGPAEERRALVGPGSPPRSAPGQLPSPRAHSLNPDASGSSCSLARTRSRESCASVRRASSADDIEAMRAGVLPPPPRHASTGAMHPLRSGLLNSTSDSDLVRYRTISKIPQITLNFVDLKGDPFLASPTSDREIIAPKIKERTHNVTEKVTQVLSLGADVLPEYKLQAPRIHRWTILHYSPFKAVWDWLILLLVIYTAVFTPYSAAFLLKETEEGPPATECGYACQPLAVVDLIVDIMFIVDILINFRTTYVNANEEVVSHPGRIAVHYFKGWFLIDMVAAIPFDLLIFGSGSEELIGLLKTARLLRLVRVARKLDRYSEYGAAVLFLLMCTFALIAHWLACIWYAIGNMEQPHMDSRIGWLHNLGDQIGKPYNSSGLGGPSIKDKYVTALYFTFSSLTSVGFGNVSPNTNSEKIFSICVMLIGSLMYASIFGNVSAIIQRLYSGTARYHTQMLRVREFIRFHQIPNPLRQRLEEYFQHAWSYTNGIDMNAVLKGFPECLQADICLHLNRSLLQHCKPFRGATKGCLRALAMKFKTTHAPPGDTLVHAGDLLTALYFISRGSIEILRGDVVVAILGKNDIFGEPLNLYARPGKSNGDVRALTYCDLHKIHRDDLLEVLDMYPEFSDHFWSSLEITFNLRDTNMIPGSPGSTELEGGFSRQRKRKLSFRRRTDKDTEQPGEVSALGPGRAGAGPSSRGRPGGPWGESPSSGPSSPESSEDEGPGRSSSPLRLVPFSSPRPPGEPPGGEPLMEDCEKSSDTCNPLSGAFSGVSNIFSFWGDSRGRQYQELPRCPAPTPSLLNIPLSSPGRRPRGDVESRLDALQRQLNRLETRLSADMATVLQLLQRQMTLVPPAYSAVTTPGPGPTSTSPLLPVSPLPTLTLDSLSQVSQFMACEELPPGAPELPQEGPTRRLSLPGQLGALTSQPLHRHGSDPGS

Compound | hERG current change (%, negative = inhibition) at 10uM
COC(=O)CCCSc1nccn1-c1ccccc1 | -29.4%
COCC(=O)Nc1nc2n(n1)C(c1ccccc1)CC(c1ccc(OC)cc1)N2 (stereo not drawn) | -3.73%
COc1ccccc1C(=O)CSc1ccccn1 | -37.4%
Oc1ccc(N=Nc2ccc(Br)cc2)c(O)c1 | 17.2%
COc1ccc(NCc2cc3ccccc3[nH]c2=O)cc1 | 4.74%
CCOC(=O)Cc1csc(NC(=O)CCS(=O)(=O)Cc2ccccc2)n1 | 1.64%
Cc1ccc(S(=O)(=O)N(C)c2ccc(C(=O)N3CCOCC3)cc2)cc1 | 8.18%
Cc1ccc(-c2nnc(SCC(=O)NC3CCCC3)n2C)cc1 | 14.9%
COc1ccc(C(=O)N2CCN(c3ccc(NC(=O)c4cccnc4)cc3)CC2)cc1 | -53.7%
COc1ccc(-c2cc(C(=O)OCC(=O)N3CCCC3)c3ccccc3n2)cc1 | -19.1%
O=C(c1ccc(Cl)cc1)N1CCCOC1 | 15.2%
COc1ccc(C2/C(=C(/O)c3ccc(F)cc3)C(=O)C(=O)N2CCCN2CCOCC2)cc1OC (stereo not drawn) | 19%
Cn1cccc1/C=C1/C(=O)NC(=S)N(Cc2ccc(F)cc2)C1=O | 5.15%
Cc1ccc(S(=O)(=O)N2CCCCC2)cc1NC(=O)COC(=O)c1ccccc1F | -13.1%
N=c1ncn(CC(O)CN2CCOCC2)c2nc(N3CCOCC3)[nH]c12 (stereo not drawn) | 1.24%
Br.CC(=O)N1c2ccccc2C2(O)N=C(C)SC12 (stereo not drawn) | 17%
O=C(NCc1ccco1)/C(=C/c1ccc(C(F)(F)F)cc1)c1nc2ccccc2[nH]1 | 2.47%
Cc1ccccc1N(C(=O)c1snc(C(N)=O)c1N)C(C(=O)NC1CCCCC1)c1ccc(O)cc1 (stereo not drawn) | 24.6%
Cc1cc(C(=O)COC(=O)[C@H](C)NC(=O)c2ccco2)c(C)n1Cc1ccco1 | -23.1%
Cc1nnc(NC(=O)CCCOc2ccccc2)s1 | 11.8%
Cc1cc(C)c2c(n1)nn1c(N3CCN(c4ccccc4C)CC3)cc(C)nc21 | 7.78%
COCCNC(=O)CN1C(=O)CSc2cc(S(=O)(=O)N3CCCCCC3)ccc21 | -1.65%

Compound | hERG current change (%, negative = inhibition) at 10uM
Cc1cccc(-c2ocnc2C(=O)N2CCN(C(=O)c3cccs3)CC2)c1 | -5.1%
COC(=O)[C@H](Cc1c[nH]c2ccccc12)NC(=O)NCc1ccc(OC)cc1 | 7.01%
CCOC(=O)C(=NCCCN1CCOCC1)NNc1cccc(C(F)(F)F)c1 | -32%
O=c1oc2ccccc2c(Nc2ccc(Cl)cc2)c1[N+](=O)[O-] | 14.5%
O=C(NC1CCCCC1)c1ccccc1NC(=S)NC(=O)C1CCC1 | -7.98%
NC(=O)c1ccccc1OCC(=O)O | -7.15%
NC(=O)c1c(NC(=O)c2ccncc2)sc2c1CCCC2 | 8.71%
CC(c1ccco1)N(C(=O)c1ccccc1NS(=O)(=O)c1cc([N+](=O)[O-])ccc1Cl)c1ccccn1 (stereo not drawn) | 23.3%
O=C(CCCc1c[nH]c2ccccc12)Nc1ccc2ccccc2c1 | 12.6%
S=c1[nH]nc(Cn2nnc3ccccc32)n1-c1ccccc1 | 20.5%
O=C(Nc1ccc(N2CCN(C(=O)c3ccccc3)CC2)cc1)c1cccnc1 | -1.77%
COc1ccc(OC)c2c(C)cc(N3CCN(C(=O)c4ccc(Cl)cc4)CC3)nc12 | 2.81%
COc1cc(=O)[nH]c(SCc2c(F)c(F)c(F)c(F)c2F)n1 | 0.443%
COc1cccc(-c2ccc(SCC(=O)NC3CCCC3)nn2)c1 | -7.24%
CCc1ccc(OCC(=O)NC(C)C)cc1 | 5.76%
CCOC(=O)CNC(=O)CSc1ccc(-c2nc3ccccc3[nH]2)cn1 | -6.35%
COc1ccc(Cl)cc1NC(=O)CN(C)C1CCCCC1 | -34.8%
Cc1nc2c(c(N3CCOCC3)n1)OCC(=O)N2 | 11.8%
Cc1cc(S(=O)(=O)Nc2ccc(C(=O)NCC(c3ccco3)N(C)C)cc2)ccc1F (stereo not drawn) | -34%
CCN(CC(=O)NCCN1CCOCC1)S(=O)(=O)c1ccc(F)cc1 | 6.53%
CCOC(=O)C(C(=O)OCC)C(C)C#CCN1CCCCC1 (stereo not drawn) | -14.5%
COc1cc2c(C(=O)N(C)c3ccc(F)cc3)cn(C)c(=O)c2cc1OC | 12.8%

Compound | hERG current change (%, negative = inhibition) at 10uM
Clc1ccccc1N1CCN(Cc2c[nH]c3ccccc23)CC1 | -35.6%
CCOC(=O)c1c(C)[nH]c(C(=O)N2CCc3cc(OC)c(OC)cc3C2)c1C | -12.3%
O=S(=O)(c1cccc(S(=O)(=O)N2CCCC2)c1)c1cccc(S(=O)(=O)N2CCCC2)c1 | -6.33%
Cc1c(O)ccc2c(=O)c(Oc3ccccc3)coc12 | 24.2%
COc1ccccc1OCCOCCOc1ccc(C)cc1[N+](=O)[O-] | -42.8%
O=C(CSc1ccc(-c2ccco2)nn1)c1cccc([N+](=O)[O-])c1 | -2.7%
Cc1nonc1C(=O)N/N=C/c1cc2c(cc1Br)OCO2 | 20.6%
COc1ccccc1NC(=O)Cn1cnc2sc(C(=O)Nc3ccc(OC)c(OC)c3)c(C)c2c1=O | 33.3%
O=C(Nc1cccc2ccccc12)c1ccccc1NS(=O)(=O)c1cccc2cccnc12 | -7.41%
CCOc1cc(C)c(S(=O)(=O)NCCCn2ccnc2)cc1C | -2.53%
Nc1c(N(CCO)C(=O)COc2ccc(Cl)cc2)c(=O)[nH]c(=O)n1Cc1ccccc1 | -4.76%
COC(=O)CCc1nc2c(C#N)c(-c3ccc(Cl)cc3)ccn2n1 | -2.07%
CC(=O)Nc1ccc(NC(=O)CN(c2cccc(C(C)=O)c2)S(C)(=O)=O)cc1 | 14.7%
CCOC(=O)c1c(NC(=S)Nc2ccccc2)sc2c1CCCCC2 | 17.3%
O=C(NCc1ccccc1)C(c1ccc(F)cc1)N(Cc1cccs1)C(=O)c1cnccn1 (stereo not drawn) | 0.717%
Cc1cccc(N2CCN(C(=O)Cn3nc(C)n4cccc4c3=O)CC2C)c1 (stereo not drawn) | 1.19%
COc1ccc(/C=N/NC(=O)c2ccc3nc[nH]c3c2)c(OC)c1OC | 12.9%
Cn1c(=O)c2c(nc(SCCN3CCOCC3)n2Cc2ccccc2)n(C)c1=O | -32.5%
COc1ccc(-c2c3c(=O)n(C)c(=O)n(C)c3cn2C2CCCCC2)cc1 | -43.9%
Cc1nc2ncnn2c(N2CCC(C(=O)NC3CCCC3)CC2)c1Cc1ccccc1 | -57.4%
Cc1ccc(S(=O)(=O)Nc2cc(C)c(O)c(Sc3n[nH]c(C)n3)c2)cc1 | 2.79%
O=C(O)CSCNC(=O)C12CC3CC(CC(C3)C1)C2 | -10.4%

Compound | hERG current change (%, negative = inhibition) at 10uM
COc1ccc(C(=O)NC(NC(=O)c2ccc(OC)cc2)c2ccccc2F)cc1 | 7.5%
CC(=O)c1cccc(OCc2cc(C(=O)N(C)CCc3cnn(C)c3)no2)c1 | 5.21%
O=C(NC(=S)Nc1ccc(N2CCOCC2)c(Cl)c1)C(c1ccccc1)c1ccccc1 | 5.35%
Cc1c(C(=O)N2CCCC2)sc(NC(=O)c2cccc(Cl)c2)c1C#N | 20.6%
COc1ccc(COC(=O)C2=C(C)NC(=O)NC2c2cccc(OC)c2OC)cc1 (stereo not drawn) | 5.25%
COc1ccc2c(COC(=O)CCS(=O)(=O)c3ccccc3)cc(=O)oc2c1 | 2.79%
N=c1c(C(=O)NCC2CCCO2)cc2c(=O)n3ccccc3nc2n1Cc1ccccc1 (stereo not drawn) | -75.3%
c1ccc(CCCNCC2COc3ccccc3O2)cc1 (stereo not drawn) | -15%
CC1C(=O)N2CCCc3cc(NS(=O)(=O)c4ccc([N+](=O)[O-])cc4)cc1c32 (stereo not drawn) | -16.2%
Cc1ccccc1S(=O)(=O)NCc1ccc(N2CCN(C)CC2)cc1 | -4.9%
CCCCc1nc2cc(C(=O)N3CCC(OC)CC3)ccc2o1 | -0.171%
COc1ccc(Nc2nc(N)nc(CN3CCN(c4ccc(F)cc4)CC3)n2)cc1 | -69.5%
CCN(CC)CCNC(=O)Cc1c(C(=O)O)n(C)c2ccccc12 | -2.45%
O=C(NCC1CCCO1)C1CC(=O)N(c2cccc(Cl)c2)C1 (stereo not drawn) | -8.95%
O=C(Nc1nnc(SCC(=O)N2CCCCC2)s1)c1ccccc1F | 11.9%
O=C(NCc1ccccc1)c1nccnc1CO | 21.6%
CN(Cc1ccc(F)cc1)C(=O)CNC(=O)c1ccc2c(c1)OCO2 | 15.2%
CN1CCN(C(=O)/C(=C\c2ccccc2)c2ccccc2)CC1 | -59.9%
CSc1ccc(/C=C/C(=O)c2ccc(NC(=O)Cc3ccccc3)cc2)cc1 | -4.59%
COc1ccc(C(=O)N/C(=C\c2ccc(OC)c(OC)c2)C(=O)N2CCCCC2)cc1 | 6.11%
Cc1ccc(NC(=O)c2ccc(=O)n(CC(=O)Nc3ccccc3)n2)cc1 | 21.9%
